Out of some 45,000 compounds screened, about 65 (0.1%) were called active. The call rests on the fitted dose curve; in most records, active means well fitted activation curve with a large enough effect; inconclusive means small, poorly fitted or top-dose-only effect; inactive means no such curve, though single readings can be large or run the other way. This is one part of the list.
molecular target: Galactocerebrosidase (Homo sapiens) (UniProt P54803); assay: A Novel Cell-Based Assay to Identify Small Molecules for B -Galactocerebrosidase; conditions: 145M-Twi-hGALC-G270D cells, HMU-beta-Gal fluorescence, 48 h; series mostly up to 57.5 µM; activation: at the top concentration; further: 0% is about no effect; nearly all actives have a fitted effect of over 65% in size
UniProt P54803, sequence (P54803 whole entry, looked up): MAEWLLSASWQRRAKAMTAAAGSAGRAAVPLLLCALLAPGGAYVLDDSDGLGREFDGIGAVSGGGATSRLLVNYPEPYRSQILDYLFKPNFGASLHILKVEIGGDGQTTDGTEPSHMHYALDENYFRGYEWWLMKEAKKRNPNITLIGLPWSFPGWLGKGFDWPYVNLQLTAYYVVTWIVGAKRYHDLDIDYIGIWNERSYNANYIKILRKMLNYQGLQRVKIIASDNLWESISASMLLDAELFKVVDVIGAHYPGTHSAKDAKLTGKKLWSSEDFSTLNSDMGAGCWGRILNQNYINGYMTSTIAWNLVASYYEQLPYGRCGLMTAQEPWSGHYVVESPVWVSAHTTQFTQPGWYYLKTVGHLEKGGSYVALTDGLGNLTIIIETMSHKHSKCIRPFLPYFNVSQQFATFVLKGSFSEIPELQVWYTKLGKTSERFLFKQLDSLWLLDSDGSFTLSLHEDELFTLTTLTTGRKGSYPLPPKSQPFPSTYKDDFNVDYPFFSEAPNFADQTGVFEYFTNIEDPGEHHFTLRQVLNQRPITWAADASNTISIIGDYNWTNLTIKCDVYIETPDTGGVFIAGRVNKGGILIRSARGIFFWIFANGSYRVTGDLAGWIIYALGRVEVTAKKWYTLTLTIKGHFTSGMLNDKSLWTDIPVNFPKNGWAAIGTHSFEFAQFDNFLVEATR
Summary of the method: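 qHTS, 1536-well; 145M-Twi-hGALC-G270D cells (WT line also made) in DMEM/F12 + 10% FBS; compound incubation on live cells; HMU-β-gal 0.1 mM final, pH 5.2, NaTC; carbonate stop; fluorescence increase = enhanced residual activity.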

activation, inactive:
Cc1ccc(OCCCCn2cnc3ccccc32)cc1 -8.82%
Cc1ccc(C)c(CN2C(=O)c3ccccc3S(=O)(=O)c3ccc(C(=O)Nc4cc(F)ccc4F)cc32)c1 5.21%
COc1ccc(NC(=O)c2nnn(CC(=O)Nc3c(C)cc(C)cc3C)c2N)cc1OC -5.56%
Fc1ccc(Nc2nc(SCc3cccc(Cl)c3)nc3ccccc23)cc1 -10.9%
COc1ccc(CNC(=O)C(CCSC)NS(=O)(=O)c2ccc3c(c2)oc(=O)n3C)cc1 (stereo not drawn) -3.75%
COc1ccc(CNC(=O)CN(c2ccc(C)cc2)S(=O)(=O)c2c(C)noc2C)cc1 0.646%
O=C(Nc1ccc(C(=O)N2CCCCC2)cc1)c1nsc2ccccc12 -11.6%
COc1cc(Cl)c(C)cc1NC(=O)CCc1c(C)nc2c3cccnc3nn2c1C -7.75%
O=C(Nc1nc2n(n1)C(c1ccccc1)C=C(c1ccccc1)N2)c1ccccc1 (stereo not drawn) -11.5%
CS(=O)(=O)c1ccccc1-c1nnc(NC(=O)c2ccc3c(c2)OCCO3)o1 -5.37%
COc1ccc(CNC(=O)CSc2n[nH]c(-c3ccc(F)cc3)n2)cc1 3.05%
CCOc1ccc(-c2cc(NC(=O)c3cccc(Cl)c3)c(C(=O)OC)s2)cc1 -3.39%
Cc1cc(C)cc(NC(=O)CSc2nc3c([nH]c4ccccc43)c(=O)n2-c2ccc(F)cc2)c1 -15.6%
CNC(=O)C(=O)NCC(c1ccc2c(c1)OCO2)N1CCOCC1 (stereo not drawn) -33.5%
COc1ccc(CNC(=O)C2=C(C)C(=O)OC23CCCCC3)cc1OC -4.95%
O=C(c1ccc(F)cc1F)N1CCC(c2nc(-c3ccc(S(=O)(=O)N4CCCC4)cc3)no2)CC1 -9.78%
CC1=C(C(=O)Nc2ccccc2)C(c2ccc(C)cc2)n2nc(SCc3ccccc3C)nc2N1 (stereo not drawn) -8.72%
CCCOc1ccc(C(=O)Nc2nonc2-c2ccc(OCC)cc2)cc1 -10.8%
CCCc1ccc(S(=O)(=O)N2CCC(c3nnnn3-c3ccc(OC)cc3)CC2)cc1 -8.32%
Cc1oc2cc3oc(=O)c(CC(=O)N4CCCCC4)c(C)c3cc2c1C -11.7%
CCOC(=O)c1ccc(NC(=O)c2cn(-c3ccccc3)nc2-c2ccc(C)cc2)cc1 -18%
CN1CCOC(c2ccccc2)c2ccccc2C1 (stereo not drawn) -9.33%
CCCOc1ccc(CNC(=O)c2oc3ccc4c(c3c2C)C(=O)CC(C)(CC)O4)cc1 (stereo not drawn) -16.9%
CCOc1cc(C#N)c(NC(=O)c2ccc(OC)c(S(=O)(=O)N3CCN(c4ccccc4)CC3)c2)cc1OCC -10.3%
N#CC1=C2SCN(C3CCCCC3)CN2C(=O)CC1c1ccc(Br)cc1 (stereo not drawn) -9.52%
CCc1nnc2c(N3CCN(c4cccc(C(F)(F)F)c4)CC3)nc3ccccc3n12 -23%
CSc1nc(-c2ccccc2Cl)nc2c1Cc1c(CO)cnc(C)c1O2 -8.04%
COc1ccc(CNC(=O)Cn2c(=O)c3cccn3c3ccccc32)cc1 -6.37%
c1ccc(-c2cc3ncc4c(n3n2)-c2ccccc2OC4)cc1 -2.79%
COc1ccc(C2=C(C(C)=O)Sc3nnc(-c4ccc(Cl)cc4)n3N2C(C)=O)cc1OC -15.5%
CNc1ccc(-c2nc(-c3ccccc3C)no2)cc1[N+](=O)[O-] -11.2%
CN1CCN(CCCNC(=O)c2cnn(-c3ccc(F)cc3)c2-n2cccc2)CC1 -10.2%
O=C(Nc1c(C(=O)N2CCN(c3ccccc3F)CC2)oc2ccccc12)c1ccco1 -20.1%
COc1cccc(CNc2ncnc3onc(C)c23)c1 -39.6%
O=C(Cn1c(=O)n(Cc2ccco2)c(=O)c2oc3ccccc3c21)Nc1ccc(F)c(Cl)c1 -10.9%
COc1ccc(N(CC(=O)N2CCc3ccccc3C2)S(=O)(=O)c2ccc(C)cc2)cc1Cl -23%
CCCCNc1ccc(C(=O)OCCN(C)C)cc1 -24.1%
CCC(=O)N1CCc2cc(Br)cc(S(=O)(=O)N3CCC(C(=O)Nc4ccccc4F)CC3)c21 -11.9%
CCCCCOc1ccc(Cn2c(=O)oc3ccc(C)cc32)cc1OC -44.7%
CC(=O)N1CCc2cc(S(=O)(=O)NC(CC(C)C)C(=O)NCc3ccccc3Cl)ccc21 (stereo not drawn) -20.5%
CCOC(=O)CCC(=O)Nc1nnc2n1CCS2 -15.5%
O=c1c(NCc2ccccc2Cl)nccn1-c1ccccc1 4.16%
CC(=O)Nc1ccc(-c2nnc3n(Cc4ccc(C)cc4)c(=O)c4ccccc4n23)cc1 -15.1%
Cc1ccc(C(=O)Nc2nnc(S(=O)(=O)N3CCCCCC3)s2)cc1 -16.2%
COc1ccc(CNC(=O)CCc2c(C)c3cc4c(C)c(C)oc4cc3oc2=O)cc1 22.2%
O=C(Cn1ccn(-c2ccc(F)cc2)c(=O)c1=O)Nc1ccccc1C(F)(F)F -2.35%
CCCCc1nn2c(=O)cc(COC(=O)c3ccccc3NC(=O)c3cccs3)nc2s1 -18.1%
O=C(Nc1ccc(Cl)cc1Cl)c1cc(S(=O)(=O)N2CCCCCC2)ccc1F -14.1%
Cc1cc(C)cc(C(=O)n2nc(C)c(S(=O)(=O)N3CCCCCC3)c2C)c1 0.84%
Cc1c(C(=O)N2CCN(c3ccc(F)cc3)CC2)sc2nc3n(c(=O)c12)CCC3 -24.7%
O=C1CC(c2cc(F)cc(F)c2)c2cc3c(cc2N1)OCO3 (stereo not drawn) 0.477%
CCCCS(=O)(=O)c1oc(-c2cccs2)nc1S(=O)(=O)c1ccc(F)cc1 -24.8%
Cc1cccc(-n2c(N)cc(=O)nc2SCC(=O)Nc2ccc(F)cc2)c1C -13.8%
COc1ccc(Br)cc1C(=O)Nc1ccc(-c2nc3ncccc3o2)cc1C -11.2%
CC(C)Cn1c(C2CC(=O)N(c3ccccc3Cl)C2)nc2ccccc21 (stereo not drawn) -26.1%
Cc1cccc(NC(=O)Cn2nnc(C(=O)NCc3ccco3)c2N)c1 -3.48%
O=C(Cn1nc(-c2ccccc2)nc(Cc2ccccc2)c1=O)Nc1ccc(Cl)cc1 -11.4%
Cc1oc(-c2ccc(C(=O)NCCN(C)C)cc2)nc1CS(=O)(=O)c1ccccc1 0.743%
Cc1ccc(C(=O)NCC(=O)OCc2cc(=O)n3ccsc3n2)cc1 -6.47%
CCc1ccc(NC(=O)CSc2ccc3nc(-c4ccc(OC)cc4)cn3n2)cc1 -9.29%
COC(=O)CSc1nc2sc3c(c2c(=O)n1-c1ccc(C)cc1)CC(C(C)C)OC3 (stereo not drawn) -22%
CCN(CC)S(=O)(=O)c1ccc2c(c1)N(CC(=O)Nc1ccc(OC)cc1)C(=O)CS2 -12.6%
Cc1ccccc1CNC(=O)c1oc2c(c1C)-c1nn(Cc3ccc(Cl)cc3)cc1CC2 -12.3%

From PubChem BioAssay AID1159614 (National Center for Advancing Translational Sciences (NCATS), 2016)
